Test results from the supplement of paper PMC4967469.
By IC50 is meant the dose at which the fit gives 50% viability; fits outside the tested doses are given as limits. The AUC spans the tested range (256-fold, ending at the top dose) of the same fit; the more sensitive the line, the further below 1.

These cell lines were tested with COc1ccc(C2=N[C@@H](c3ccc(Cl)cc3)[C@@H](c3ccc(Cl)cc3)N2C(=O)N2CCNC(=O)C2)c(OC(C)C)c1 [Nutlin-3a] (assay: Viability of human cancer cell lines after 72 h of drug (GDSC screen)).
Procedure: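 Human cancer cell lines in 384-well plates, medium with 10% serum, drug for 72 h over a 256-fold dose range (nine 2-fold or five 4-fold steps up to the top dose). Adherent lines were fixed and stained with the nucleic acid dye Syto60, suspension lines read with resazurin; signal relative to control wells, capped at 0 and 100%. One two-parameter sigmoid per drug and line, fitted in a mixed model over all curves with the slope shared within a line.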

Point of comparison: “ME-1 (acute myeloid leukaemia, suspension, top dose 8 µM)”, AUC 0.984. Against it:
- LN-18 (glioma, adherent, top dose 8 µM) — higher, 0.994
- LN-405 (glioma, adherent, top dose 8 µM) — lower, 0.969
- LNZTA3WT4 (glioma, adherent, top dose 8 µM) — higher, 0.988
- LOU-NH91 (lung squamous cell carcinoma, adherent, top dose 8 µM) — the same, 0.984
- LOUCY (T-cell lymphoblastic leukaemia, suspension, top dose 8 µM) — lower, 0.948
- LOXIMVI (melanoma, semi-adherent, top dose 8 µM) — lower, 0.806
- LP-1 (myeloma, suspension, top dose 8 µM) — lower, 0.981
- LS-180 (large intestine, adherent, top dose 8 µM) — lower, 0.856
- LS-411N (large intestine, adherent, top dose 8 µM) — lower, 0.981
- LS-513 (large intestine, adherent, top dose 8 µM) — lower, 0.972
- LS-1034 (large intestine, adherent, top dose 8 µM) — lower, 0.975
- LU-65 (large cell lung carcinoma, suspension, top dose 8 µM) — higher, 0.987
- LU-134-A (small cell lung carcinoma, suspension, top dose 8 µM) — higher, 0.987
- LU-135 (small cell lung carcinoma, suspension, top dose 8 µM) — higher, 0.992
- LU-139 (small cell lung carcinoma, suspension, top dose 8 µM) — lower, 0.946
- LU-165 (small cell lung carcinoma, suspension, top dose 8 µM) — lower, 0.982
- LXF-289 (lung adenocarcinoma, adherent, top dose 8 µM) — lower, 0.97
- LoVo (large intestine, adherent, top dose 8 µM) — lower, 0.856
- M059J (glioma, adherent, top dose 8 µM) — lower, 0.976
- MC116 (B-cell lymphoma, suspension, top dose 8 µM) — higher, 0.999
- MC-CAR (haematopoietic neoplasm, suspension, top dose 8 µM) — lower, 0.916
- MC-IXC (neuroblastoma, adherent, top dose 8 µM) — lower, 0.981
- MDA-MB-157 (breast, adherent, top dose 8 µM) — lower, 0.942
- MDA-MB-231 (breast, adherent, top dose 8 µM) — lower, 0.979
- MDA-MB-330 (breast, adherent, top dose 8 µM) — lower, 0.947
- MDA-MB-361 (breast, adherent, top dose 8 µM) — lower, 0.976
- MDA-MB-415 (breast, adherent, top dose 8 µM) — lower, 0.983
- MDA-MB-436 (breast, adherent, top dose 8 µM) — lower, 0.961
- MDA-MB-453 (breast, adherent, top dose 8 µM) — higher, 0.985
- MDST8 (large intestine, adherent, top dose 8 µM) — lower, 0.893
- ME-180 (cervix, adherent, top dose 8 µM) — lower, 0.969
- MEG-01 (chronic myeloid leukaemia, suspension, top dose 8 µM) — lower, 0.976
- MEL-HO (melanoma, adherent, top dose 8 µM) — lower, 0.844
- MEL-JUSO (melanoma, adherent, top dose 8 µM) — lower, 0.752
- MES-SA (uterus, adherent, top dose 8 µM) — lower, 0.914
- MFE-280 (endometrium, adherent, top dose 8 µM) — lower, 0.982
- MFE-296 (endometrium, adherent, top dose 8 µM) — lower, 0.864
- MFE-319 (endometrium, adherent, top dose 4 µM) — lower, 0.975
- MFH-ino (soft tissue, adherent, top dose 8 µM) — lower, 0.743

Point of comparison: “MFE-296 (endometrium, adherent, top dose 8 µM)”, IC50 7.83 µM. Against it:
- LN-18 (glioma, adherent, top dose 8 µM) — higher, > 8 µM
- LN-405 (glioma, adherent, top dose 8 µM) — higher, > 8 µM
- LNZTA3WT4 (glioma, adherent, top dose 8 µM) — higher, > 8 µM
- LOU-NH91 (lung squamous cell carcinoma, adherent, top dose 8 µM) — higher, > 8 µM
- LOUCY (T-cell lymphoblastic leukaemia, suspension, top dose 8 µM) — higher, > 8 µM
- LOXIMVI (melanoma, semi-adherent, top dose 8 µM) — 2.2-fold lower, 3.54 µM
- LP-1 (myeloma, suspension, top dose 8 µM) — higher, > 8 µM
- LS-180 (large intestine, adherent, top dose 8 µM) — within 1.5-fold, 7.94 µM
- LS-411N (large intestine, adherent, top dose 8 µM) — higher, > 8 µM
- LS-513 (large intestine, adherent, top dose 8 µM) — higher, > 8 µM
- LS-1034 (large intestine, adherent, top dose 8 µM) — higher, > 8 µM
- LU-65 (large cell lung carcinoma, suspension, top dose 8 µM) — higher, > 8 µM
- LU-134-A (small cell lung carcinoma, suspension, top dose 8 µM) — higher, > 8 µM
- LU-135 (small cell lung carcinoma, suspension, top dose 8 µM) — higher, > 8 µM
- LU-139 (small cell lung carcinoma, suspension, top dose 8 µM) — higher, > 8 µM
- LU-165 (small cell lung carcinoma, suspension, top dose 8 µM) — higher, > 8 µM
- LXF-289 (lung adenocarcinoma, adherent, top dose 8 µM) — higher, > 8 µM
- LoVo (large intestine, adherent, top dose 8 µM) — within 1.5-fold, 6.53 µM
- M059J (glioma, adherent, top dose 8 µM) — higher, > 8 µM
- MC116 (B-cell lymphoma, suspension, top dose 8 µM) — higher, > 8 µM
- MC-CAR (haematopoietic neoplasm, suspension, top dose 8 µM) — higher, > 8 µM
- MC-IXC (neuroblastoma, adherent, top dose 8 µM) — higher, > 8 µM
- MDA-MB-157 (breast, adherent, top dose 8 µM) — higher, > 8 µM
- MDA-MB-231 (breast, adherent, top dose 8 µM) — higher, > 8 µM
- MDA-MB-330 (breast, adherent, top dose 8 µM) — higher, > 8 µM
- MDA-MB-361 (breast, adherent, top dose 8 µM) — higher, > 8 µM
- MDA-MB-415 (breast, adherent, top dose 8 µM) — higher, > 8 µM
- MDA-MB-436 (breast, adherent, top dose 8 µM) — higher, > 8 µM
- MDA-MB-453 (breast, adherent, top dose 8 µM) — higher, > 8 µM
- MDST8 (large intestine, adherent, top dose 8 µM) — higher, > 8 µM
- ME-1 (acute myeloid leukaemia, suspension, top dose 8 µM) — higher, > 8 µM
- ME-180 (cervix, adherent, top dose 8 µM) — higher, > 8 µM
- MEG-01 (chronic myeloid leukaemia, suspension, top dose 8 µM) — higher, > 8 µM
- MEL-HO (melanoma, adherent, top dose 8 µM) — within 1.5-fold, 5.82 µM
- MEL-JUSO (melanoma, adherent, top dose 8 µM) — 2.7-fold lower, 2.92 µM
- MES-SA (uterus, adherent, top dose 8 µM) — higher, > 8 µM
- MFE-280 (endometrium, adherent, top dose 8 µM) — higher, > 8 µM
- MFE-319 (endometrium, adherent, top dose 4 µM) — not separable, > 4 µM
- MFH-ino (soft tissue, adherent, top dose 8 µM) — 2.7-fold lower, 2.86 µM
